PubChem BioAssay (NCATS)
The shares of active, inactive and inconclusive entries below differ from those in the screen. Potencies of inconclusive entries are left out as doubtful fits. Calls of active or inactive are those of the source. The call rests on the fitted dose curve; in most records, active means well fitted inhibition curve with a large enough effect; inconclusive means small, poorly fitted or top-dose-only effect, or another doubt; inactive means no such curve, though single readings can be large or run the other way.

What follows are compounds tested against DNA polymerase eta (Homo sapiens) (UniProt Q9Y253) (assay: qHTS for Inhibitors of Polymerase Eta: Confirmatory Assay for Cherry-picked Compounds (AID 720502)). Settings: Pol eta primer extension, TAMRA/BHQ fluorescence, 10 min.
Chain of UniProt Q9Y253 (Q9Y253 whole entry, looked up): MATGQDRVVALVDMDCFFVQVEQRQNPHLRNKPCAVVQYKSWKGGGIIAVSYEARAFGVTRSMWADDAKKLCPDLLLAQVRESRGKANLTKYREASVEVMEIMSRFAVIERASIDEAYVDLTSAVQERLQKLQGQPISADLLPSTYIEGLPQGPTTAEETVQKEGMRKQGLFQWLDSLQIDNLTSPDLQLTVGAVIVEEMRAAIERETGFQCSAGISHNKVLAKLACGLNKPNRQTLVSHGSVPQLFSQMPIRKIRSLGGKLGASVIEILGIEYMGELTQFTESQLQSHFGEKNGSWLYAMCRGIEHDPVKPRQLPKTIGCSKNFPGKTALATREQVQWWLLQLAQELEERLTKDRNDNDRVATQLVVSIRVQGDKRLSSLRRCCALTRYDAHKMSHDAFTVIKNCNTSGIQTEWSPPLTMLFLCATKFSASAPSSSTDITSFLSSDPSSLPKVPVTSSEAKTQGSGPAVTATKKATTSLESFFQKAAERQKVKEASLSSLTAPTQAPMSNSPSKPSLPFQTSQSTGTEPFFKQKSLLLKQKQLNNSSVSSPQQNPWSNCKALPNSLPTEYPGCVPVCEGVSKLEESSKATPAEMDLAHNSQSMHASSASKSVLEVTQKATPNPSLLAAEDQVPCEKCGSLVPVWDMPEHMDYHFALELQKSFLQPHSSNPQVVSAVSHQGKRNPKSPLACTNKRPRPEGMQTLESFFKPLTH
Outline: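 The reaction starts with 50 nM final labeled DNA substrate added to Pol eta (10 nM) that had sat with compound for 15 min. TAMRA emission at 598 nm is read at 0 and 10 min.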
Potency means the concentration at half of the fitted maximal effect; tags describe the fitted curve by direction and shape.

SMILES | Potency
CC1=C2C(CCS2(=O)=O)CC2(C1)C(=O)OC(C)(C)OC2=O (stereo not given) | inconclusive [inhibitor, single point]
Cc1ccc(CNc2ccc(O)cc2)cc1 | inconclusive [inhibitor, single point]
O=C(O)c1cccc(N2C(=O)C=CC2=O)c1 | active: 53.6 µM
COc1cc(Cl)c(C)cc1NC(=O)c1ccc2c(SCC(=O)O)c3c(nc2c1)CCCC3 | inconclusive [inhibitor, single point]
CC(=O)c1ccc(N2CCN(S(=O)(=O)c3ccc(-c4coc(C)n4)cc3)CC2)cc1 | inconclusive [inhibitor, single point]
CC1=C(C(=O)OC(C)C)C(c2ccc(Cl)cc2)n2c(s/c(=C\c3ccc(OCC(=O)O)cc3)c2=O)=N1 (stereo not given) | active: 60.1 µM
CC(Sc1ccsc1[N+](=O)[O-])C(=O)N1CCN(c2ccccn2)CC1 (stereo not given) | active: 75.7 µM
O=c1[nH][nH]c2cc(=O)n(-c3ccc(Cl)cc3)nc12 | inconclusive [inhibitor, single point]
CC(=O)Nc1c(O)nc(SCC(=O)Nc2nnc(SCc3ccccc3)s2)[nH]c1=O | inconclusive [inhibitor, single point]
CC(SCc1cc(=O)n2c([nH]c3ccccc32)c1C#N)C(=O)O (stereo not given) | inconclusive [inhibitor, single point]
COc1ccc(Cl)cc1NC(=O)c1c(NCc2ccc(C)o2)sc2c1CCCC2 | inconclusive [inhibitor, single point]
CC(=O)NC12CC3CC(C1)CC(C(=O)OCC(=O)Nc1ncc(Cl)c(C)c1Cl)(C3)C2 | inconclusive [inhibitor, single point]
COc1ccc2cc(C(=O)NCc3ccccc3)c(=Nc3ccc(C(=O)O)cc3)oc2c1 | inconclusive [inhibitor, single point]
Cc1cc(C2(c3ccc(O)c(C)c3)OC(=O)c3ccccc32)ccc1O | inconclusive [inhibitor, single point]
CC1C(=O)Nc2ccc(S(=O)(=O)NCc3ccc(N(C)C)cc3)cc2NC1=O (stereo not given) | inconclusive [inhibitor, single point]
COc1ccc(N2CCN(S(=O)(=O)c3ccc(-c4coc(C)n4)cc3)CC2)cc1 | inconclusive [inhibitor, single point]
Cc1c(C(=O)O)cccc1-c1ccc(C=O)o1 | active: 84.9 µM
O=C(O)c1ccc(/C=N/NC(=O)c2cc3ccccc3cc2O)cc1 | inconclusive [inhibitor, single point]
COc1ccc(OC)c([C@@H]2Nc3ccc(C(=O)O)cc3[C@@H]3C=CC[C@@H]32)c1 | active: 84.9 µM
COC(=O)c1ccccc1NC(=O)c1ccc2nccnc2c1 | inconclusive [inhibitor, single point]
COc1ccc(/C=C/C(=O)O)cc1S(=O)(=O)N1CCc2ccccc2C1 | inconclusive [inhibitor, single point]
Cc1cccc(/C=C(\C(=O)O)c2ccc(S(=O)(=O)N3CCCC3)s2)c1 | inconclusive [inhibitor, single point]
CC#CCCCC(=O)Nc1cccc(C(=O)O)c1 | inconclusive [inhibitor, single point]
Oc1ccc(N=Nc2ccccc2-c2nn[nH]n2)c(O)c1 | active: 53.6 µM
CCOC(=O)c1ccc(NC2=CC(=O)C(=O)c3ccccc32)cc1 | inconclusive [inhibitor, single point]
Cc1cc(C=C2C(=O)c3ccccc3C2=O)c(C)n1-c1ccc(C(=O)O)cc1 | inconclusive [inhibitor, single point]
Cn1nc(-c2cccnc2)nc2c(=O)n(C)c(=O)nc1-2 | active: 2.39 µM
CCc1cccc(NC(=O)CCS(=O)(=O)c2ccc(Br)cc2)c1 | active: 84.9 µM
O=C(O)c1ccc(CSc2nc3ccc(NC(=O)c4ccccc4C(=O)O)cc3s2)cc1 | inconclusive [inhibitor, single point]
Cc1cccc(OCC(=O)OCc2cc(=O)n3nc(-c4cccs4)sc3n2)c1 | inconclusive [inhibitor, single point]
